# In all, about 310,000 compounds went through this assay and about 2,200 (0.71%) showed an effect of 50% or more. The effect is printed as a negative number. Some of the results follow.
# Target: human ether-à-go-go-related gene (hERG) potassium channel (human, UniProt Q12809)
# Experiment: primary screen, population patch clamp on CHO cells stably expressing hERG
# human ether-à-go-go-related gene (hERG) potassium channel, sequence (Q12809 whole entry, looked up): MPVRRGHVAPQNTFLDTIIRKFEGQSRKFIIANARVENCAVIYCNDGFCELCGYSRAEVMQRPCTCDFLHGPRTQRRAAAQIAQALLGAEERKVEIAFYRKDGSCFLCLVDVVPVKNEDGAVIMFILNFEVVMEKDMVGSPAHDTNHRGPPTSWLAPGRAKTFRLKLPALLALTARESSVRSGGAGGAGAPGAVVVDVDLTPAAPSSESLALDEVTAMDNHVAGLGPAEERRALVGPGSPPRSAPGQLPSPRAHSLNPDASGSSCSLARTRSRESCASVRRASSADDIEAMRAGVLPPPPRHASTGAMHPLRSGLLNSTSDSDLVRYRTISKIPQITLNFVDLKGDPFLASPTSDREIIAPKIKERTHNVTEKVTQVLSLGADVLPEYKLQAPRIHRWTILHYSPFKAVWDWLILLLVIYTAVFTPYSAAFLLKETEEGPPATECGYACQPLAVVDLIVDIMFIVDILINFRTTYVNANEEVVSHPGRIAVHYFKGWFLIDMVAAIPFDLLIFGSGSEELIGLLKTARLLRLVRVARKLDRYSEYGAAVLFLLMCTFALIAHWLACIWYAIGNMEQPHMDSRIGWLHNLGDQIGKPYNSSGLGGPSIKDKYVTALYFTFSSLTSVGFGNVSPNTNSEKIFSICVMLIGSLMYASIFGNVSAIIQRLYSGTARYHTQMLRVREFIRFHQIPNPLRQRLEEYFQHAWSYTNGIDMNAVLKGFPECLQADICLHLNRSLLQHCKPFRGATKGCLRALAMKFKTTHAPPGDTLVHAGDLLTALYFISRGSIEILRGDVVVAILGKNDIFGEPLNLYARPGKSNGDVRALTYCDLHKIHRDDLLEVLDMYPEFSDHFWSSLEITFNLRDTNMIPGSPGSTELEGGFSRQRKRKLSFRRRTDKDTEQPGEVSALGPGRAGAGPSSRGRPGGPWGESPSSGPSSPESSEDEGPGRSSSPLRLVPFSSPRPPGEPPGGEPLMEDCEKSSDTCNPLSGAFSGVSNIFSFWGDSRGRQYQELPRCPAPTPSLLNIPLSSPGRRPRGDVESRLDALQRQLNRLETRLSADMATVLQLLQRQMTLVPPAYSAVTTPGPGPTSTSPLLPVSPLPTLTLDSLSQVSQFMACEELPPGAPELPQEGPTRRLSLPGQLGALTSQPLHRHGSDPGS
row,SMILES,"hERG current change (%, negative = inhibition) at 1uM [%]"
1,CCOc1ccc(NC(=O)N(Cc2ccc(C)cc2)Cc2ccccn2)cc1,-5.08
2,CC(C)=CCC12Oc3cc(O)ccc3C1(O)Oc1cc3c(c(O)c1C2=O)C=CC(C)(C)O3 (stereo not drawn),14.1
3,O=C(O)C1C2C=CC(C2)C1C(=O)Nc1ccc(Cl)c(Cl)c1 (stereo not drawn),7.84
4,CCCCCn1c(CCNC(=O)c2cccs2)nc2ccccc21,-9.6
5,Nc1nc(NCCc2ccccc2)nc(NCCO)c1[N+](=O)[O-],10.5
6,COCCNC(=S)Nc1cc(S(=O)(=O)N2CCOCC2)ccc1N1CCCCC1,6.46
7,Cc1cccc(N(C)S(=O)(=O)c2cccc3nsnc23)c1,10.9
8,CCOC(=O)CSc1nnc(CNc2cccc(Cl)c2)n1-c1ccccc1,8.97
9,CCN(c1ccccc1)S(=O)(=O)c1ccc(Cl)c(NC(=O)COC(=O)c2ccc(Cl)c(N)c2)c1,7.18
10,COc1ccc(N(C(=O)COc2ccccc2)C2C=CS(=O)(=O)C2)c(OC)c1 (stereo not drawn),2.31
11,CCn1c(COc2ccc(C)cc2)nnc1SCc1nc2ccccc2[nH]1,11.6
12,Cc1ccc(S(=O)(=O)NC2CCCCC2)cc1C(=O)N1CCC(C(N)=O)CC1,16
13,O=C(c1ccco1)N1CCN(S(=O)(=O)Cc2ccc(Cl)cc2)CC1,-3.91
14,O=C1NC(=Nc2ccc(O)cc2)S/C1=C/c1ccco1,7.39
15,CCOc1cc2c(cc1OCC)C(c1ccc(C(=O)O)cc1)NCC2.Cl (stereo not drawn),14.1
16,COCCCn1c(-c2ccc(OC)cc2)nc2c1c(=O)[nH]c(=O)n2Cc1ccccc1,5.81
17,CCCCN(CCCC)c1cc(C)nc(-c2ccccc2O)n1,13.3
18,COCCOC(=O)C1=C(C)NC(=O)CC1c1cc2c(cc1Br)OCO2 (stereo not drawn),-9.45
19,COc1cccc(/C=C2\C(=O)N(c3cccc(C)c3)C(=O)c3ccccc32)c1,7.59
20,CCN1C(=NCc2cccc(Cl)c2)N[C@@H](c2cccc(F)c2)C(C(=O)OC)=C1C,-2.93
21,COc1ccc2[nH]c(C)c(CCNCc3cccnc3)c2c1.O=C(O)C(=O)O,3.08
22,CCOc1ccc(-c2nc(S(=O)(=O)c3ccccc3)c(NCc3cccnc3)o2)cc1,-6.33
23,COc1ccc(OC)c2[nH]c(C(=O)N3CCC(C(=O)O)CC3)cc12,17.2

row,SMILES,"hERG current change (%, negative = inhibition) at 1uM [%]"
1,CNCc1cc2ccc(C)cc2[nH]c1=O,-6.99
2,C=CCSc1nnc(Cc2c(C)[nH]c3ccccc23)o1,-0.0582
3,Cc1cccc(OCc2nnc(SCC(=O)N3CC(=O)Nc4ccccc43)o2)c1,15.2
4,CCCc1cc(=O)c2c(O)cccc2o1,13.2
5,COc1ccc(N/C=C(\C#N)S(=O)(=O)c2ccc(Cl)cc2)c(OC)c1,1.81
6,Cn1c(CO)c(-c2ccccc2)c2cc([N+](=O)[O-])ccc21,11.8
7,CC(C(=O)N(C)Cc1ccccc1)N1CCN(C/C=C/c2ccccc2)CC1 (stereo not drawn),-73.5
8,COc1cc(C(=O)NCCCN(C)C)ccc1OCC(=O)Nc1cccc(C(F)(F)F)c1,-18.9
9,Cc1ccc(-c2nnc(SCC(=O)N/N=C/c3ccc(C)s3)n2-c2ccc(C)cc2)cc1,2.54
10,O=C(NCC1COc2ccccc2O1)c1ccccc1 (stereo not drawn),4.62
11,Cc1c(Cc2ccc3c(c2)OCO3)sc(NC(=O)c2cccc3ccccc23)c1C(N)=O,13.4
12,Cc1c(NC(=O)Nc2cccc([N+](=O)[O-])c2)c(=O)n(-c2ccccc2)n1C,-9.65
13,O=C(O)CCCC(=O)N1CCc2cc(S(=O)(=O)N3CCc4ccccc43)ccc21,17
14,CC(=O)Nc1ccc(-c2csc(Nc3ccc(Cl)cn3)n2)cc1,18.7
15,CCc1ccc(/C=C2\Oc3c(ccc(O)c3CN3CCN(CCO)CC3)C2=O)cc1,9.49
16,CCCC(=O)O[C@@H]1C[C@@H](C)N(C(=O)c2ccccc2)c2ccc(C)cc21,-9.25
17,NC(=Nc1ccc(Br)cc1)c1ccccc1,12.3
18,COc1cc(C(=O)Nc2ccc3nc4n(c(=O)c3c2)CCCC4)ccc1Br,8.51
19,COc1ccccc1CNC(=O)C(NC(=O)Nc1ccccc1)C(C)C (stereo not drawn),12.7
20,Cc1[nH]c2ccccc2c1N=Nc1c(C)n(C)n(-c2ccccc2)c1=O,8.42
21,COCCCNC(=O)NC(=O)c1ccccc1,9.08
22,COc1ccc(CCN2Cc3c(N)cccc3C2=O)cc1OC,13.4
23,Cc1ccccc1N1C(S)=C(C#N)C(=O)NC1c1cccs1 (stereo not drawn),16.1

row,SMILES,"hERG current change (%, negative = inhibition) at 1uM [%]"
1,Cc1c(NS(=O)(=O)c2ccc(N(C)C3CCCCC3)c([N+](=O)[O-])c2)c(=O)n(-c2ccccc2)n1C,13.8
2,CCN(CC(=O)N1CCCC1)S(=O)(=O)c1ccc(Br)cc1,15.9
3,Cn1cnc(S(=O)(=O)N2CCN(c3cccc(C(F)(F)F)c3)CC2)c1,15.2
4,S=c1[nH]nc(-c2ccc3ccccc3n2)n1-c1ccc2c(c1)OCCO2,11.4
5,CCN1CCCC1CNCc1ccc(Cl)cc1Cl.Cl (stereo not drawn),-39.9
6,Clc1ccc(CN2CCC(c3ccccc3)CC2)cc1,-26
7,Cc1ccc(S(=O)(=O)N(C)C)cc1NC(=O)COc1ccccc1C(=O)Nc1ccccc1,-8.2
8,CCCCCNC(=O)CCc1ccccc1,7.2
9,CC(=O)c1ccc(OCCCC(=O)Nc2ccc(S(=O)(=O)N3CCOCC3)cc2)cc1,11.5
10,Cc1nc2ccc(S(=O)(=O)N(C)CC(=O)NCc3ccc(N(C)C)cc3)cc2s1,1.61
11,NC(=O)CCCn1c(C(=O)c2cc(Cl)c(N)c(Cl)c2)c2ccc(C(F)(F)F)cc2[n+]1[O-],5.14
12,COc1cc(C(CN)CC(=O)O)ccc1O.Cl (stereo not drawn),12.8
13,Cc1cc(OCc2nc(-c3cccs3)no2)cc(C)c1Cl,23.8
14,COc1cccc(OCc2cc(C(=O)NCC3CCCCC3)no2)c1,30.1
15,Cc1cccc2sc(NC(=O)C3c4ccccc4Oc4ccccc43)nc12,1.68
16,COc1cccc(-c2nnc(NC(=O)c3ccc(S(=O)(=O)N4CCOCC4)cc3)o2)c1,6.26
17,COC(=O)C1C(=O)NC(SC)=C(C#N)C1c1ccccc1 (stereo not drawn),12
18,CC(C)n1nc(C(=O)NCCCN2CCCC2=O)c2ccccc2c1=O,8.28
19,CCSc1ncc(C)cc1[N+](=O)[O-],-0.198
20,NC1=NC(c2ccc(Cl)cc2)n2c(nc3ccccc32)N1 (stereo not drawn),7.86
21,CNC(=O)CSCCn1c(SCC(=O)NC)nc2ccccc2c1=O,10
22,CCOc1ccc(NC2=CC(=O)CCC2)cc1,12.3
23,COc1ccccc1C(=O)Nc1ccnn1C1CCN(Cc2ccn[nH]2)CC1,1.62

row,SMILES,"hERG current change (%, negative = inhibition) at 1uM [%]"
1,CCOC(=O)NC(=O)C(/C=N/c1sccc1C(=O)OC)=C(\C)O,15.1
2,COc1cc(Cl)ccc1OCc1cc(C(=O)N2CCCCCCC2)no1,18.9
3,c1cc(C2CCN(Cc3nc(-c4ccc5c(c4)OCO5)no3)CC2)ccn1,5.2
4,CN1C(=O)/C(=N\OC(=O)c2cccc3ccccc23)c2ccccc21,10.4
5,COc1ccccc1N1CCN(C(c2ccc(Cl)cc2)c2nnnn2C(C)(C)C)CC1 (stereo not drawn),14.1
6,COC(=O)c1sccc1NC(=O)CNC(=O)c1ccccc1,5.18
7,O=C(O)c1cccc(NCc2cccnc2)c1,13.5
8,O=C(Oc1ccccc1)Oc1ccc2c(c1)oc(=O)c1ccccc12,11.2
9,CC(=O)c1cccc(NC(=O)COC(=O)[C@@H](NC(=O)OCc2ccccc2)C(C)C)c1,9.05
10,CC1CCCN(C(=O)CSc2ncccn2)C1 (stereo not drawn),16.7
11,Cc1nnc(SCCc2ccccc2)[nH]c1=O,-6.67
12,COc1cccc(N(CC(=O)N2CCCC2)S(C)(=O)=O)c1,16.5
13,N#CCc1nc2ccc(S(=O)(=O)N3CCOCC3)cc2s1,3.63
14,Cc1ccc(C)c(NC(=S)NNC(=O)c2csc(C)c2)c1,17.6
15,COc1ccc2c(C)cc(=O)oc2c1C,8.03
16,Brc1ccc2c(c1)CNc1c(ncnc1N1CCOCC1)O2,-6.41
17,CCOc1ccc(NC(=O)CSc2nnc(-c3cc(C)[nH]n3)n2N)cc1,12.8
18,Cc1cccc(N(C(=O)CS(=O)CC(=O)Nc2ccc3c(c2)OCO3)C(C)C(=O)NC2CCCC2)c1C (stereo not drawn),5.01
19,O=C(NC1CCCC1)C1CCN(S(=O)(=O)c2ccccc2)CC1,6.3
20,CCOC(=O)C1CCCN(Cc2nc(N)nc(Nc3ccccc3)n2)C1 (stereo not drawn),-18.6
21,CCOc1ccccc1CN1CCCC(CNS(=O)(=O)c2ccc(OC)cc2)C1 (stereo not drawn),-16

# — paper PMC4336329 (PLoS ONE, 2015)
